Measurements from paper PMC9911399, “Two distinct binding modes provide the RNA-binding protein RbFox with extraordinary sequence specificity”.
Where a chain is given by its changes, count along the chain named. The list shows a part of the results.

T1: RBFOX1 RRM RbFoxmut (Fox-RRM*) (Homo sapiens, UniProt Q9NWB1 109-208, R118D;E147R;N151S;E152T)
T1 sequence: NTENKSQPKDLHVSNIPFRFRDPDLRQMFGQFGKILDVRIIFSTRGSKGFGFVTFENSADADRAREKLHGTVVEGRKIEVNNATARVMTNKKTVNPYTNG

B1: UAACUUU (DNA:RNA)
RNA: GGGAGACCGGAAUUCAGAUUGUCCUAACUUUUUAAAUCCCGUCGUAGCCACCA
DNA 1: CAATCTGAATTCCGGTCTCCC
DNA 2: TGGTGGCTACGACGGGATT
B2: AUGCGAU (DNA:RNA)
RNA: B1 RNA with U25A, A26U, A27G, U29G, U30A
DNA 1: CAATCTGAATTCCGGTCTCCC
DNA 2: TGGTGGCTACGACGGGATT
B3: AUUCGCA (DNA:RNA)
RNA: B1 RNA with U25A, A26U, A27U, U29G, U30C, U31A
DNA 1: CAATCTGAATTCCGGTCTCCC
DNA 2: TGGTGGCTACGACGGGATT
B4: UAAUAUC (DNA:RNA)
RNA: B1 RNA with C28U, U29A, U31C
DNA 1: CAATCTGAATTCCGGTCTCCC
DNA 2: TGGTGGCTACGACGGGATT
B5: CCACGAA (DNA:RNA)
RNA: B1 RNA with U25C, A26C, U29G, U30A, U31A
DNA 1: CAATCTGAATTCCGGTCTCCC
DNA 2: TGGTGGCTACGACGGGATT
B6: CUUUUUC (DNA:RNA)
RNA: B1 RNA with U25C, A26U, A27U, C28U, U31C
DNA 1: CAATCTGAATTCCGGTCTCCC
DNA 2: TGGTGGCTACGACGGGATT
B7: GACGGCU (DNA:RNA)
RNA: B1 RNA with U25G, A27C, C28G, U29G, U30C
DNA 1: CAATCTGAATTCCGGTCTCCC
DNA 2: TGGTGGCTACGACGGGATT
B8: GCUCUCG (DNA:RNA)
RNA: B1 RNA with U25G, A26C, A27U, U30C, U31G
DNA 1: CAATCTGAATTCCGGTCTCCC
DNA 2: TGGTGGCTACGACGGGATT
B9: GAAUACU (DNA:RNA)
RNA: B1 RNA with U25G, C28U, U29A, U30C
DNA 1: CAATCTGAATTCCGGTCTCCC
DNA 2: TGGTGGCTACGACGGGATT
B10: UGCGUCU (DNA:RNA)
RNA: B1 RNA with A26G, A27C, C28G, U30C
DNA 1: CAATCTGAATTCCGGTCTCCC
DNA 2: TGGTGGCTACGACGGGATT
B11: CGUGGAC (DNA:RNA)
RNA: GGGAGACCGGAAUUCAGAUUGUCCCGUGGACUUAAAUCCCGUCGUAGCCACCA
DNA 1: CAATCTGAATTCCGGTCTCCC
DNA 2: TGGTGGCTACGACGGGATT
B12: GGGUCGU (DNA:RNA)
RNA: B11 RNA with C25G, U27G, G28U, G29C, A30G, C31U
DNA 1: CAATCTGAATTCCGGTCTCCC
DNA 2: TGGTGGCTACGACGGGATT
B13: GGUGAUA (DNA:RNA)
RNA: B11 RNA with C25G, G29A, A30U, C31A
DNA 1: CAATCTGAATTCCGGTCTCCC
DNA 2: TGGTGGCTACGACGGGATT
B14: UCCAAGU (DNA:RNA)
RNA: B1 RNA with A26C, A27C, C28A, U29A, U30G
DNA 1: CAATCTGAATTCCGGTCTCCC
DNA 2: TGGTGGCTACGACGGGATT
B15: UCCCCUA (DNA:RNA)
RNA: B1 RNA with A26C, A27C, U29C, U31A
DNA 1: CAATCTGAATTCCGGTCTCCC
DNA 2: TGGTGGCTACGACGGGATT
B16: CGCGCUG (DNA:RNA)
RNA: B11 RNA with U27C, G29C, A30U, C31G
DNA 1: CAATCTGAATTCCGGTCTCCC
DNA 2: TGGTGGCTACGACGGGATT
B17: UUAACAA (DNA:RNA)
RNA: B1 RNA with A26U, C28A, U29C, U30A, U31A
DNA 1: CAATCTGAATTCCGGTCTCCC
DNA 2: TGGTGGCTACGACGGGATT
B18: CGGUGCG (DNA:RNA)
RNA: B11 RNA with U27G, G28U, A30C, C31G
DNA 1: CAATCTGAATTCCGGTCTCCC
DNA 2: TGGTGGCTACGACGGGATT
B19: GGAUCGC (DNA:RNA)
RNA: B11 RNA with C25G, U27A, G28U, G29C, A30G
DNA 1: CAATCTGAATTCCGGTCTCCC
DNA 2: TGGTGGCTACGACGGGATT
B20: AUACGUA (DNA:RNA)
RNA: B1 RNA with U25A, A26U, U29G, U31A
DNA 1: CAATCTGAATTCCGGTCTCCC
DNA 2: TGGTGGCTACGACGGGATT
B21: CGCUUUU (DNA:RNA)
RNA: B1 RNA with U25C, A26G, A27C, C28U
DNA 1: CAATCTGAATTCCGGTCTCCC
DNA 2: TGGTGGCTACGACGGGATT
B22: GUGACGA (DNA:RNA)
RNA: GGGAGACCGGAAUUCAGAUUGUCCGUGACGAUUAAAUCCCGUCGUAGCCACCA
DNA 1: CAATCTGAATTCCGGTCTCCC
DNA 2: TGGTGGCTACGACGGGATT
B23: AUUCGUC (DNA:RNA)
RNA: B11 RNA with C25A, G26U, G28C, A30U
DNA 1: CAATCTGAATTCCGGTCTCCC
DNA 2: TGGTGGCTACGACGGGATT
B24: UAGACCA (DNA:RNA)
RNA: B22 RNA with G25U, U26A, G30C
DNA 1: CAATCTGAATTCCGGTCTCCC
DNA 2: TGGTGGCTACGACGGGATT
B25: UGUCCAA (DNA:RNA)
RNA: B11 RNA with C25U, G28C, G29C, C31A
DNA 1: CAATCTGAATTCCGGTCTCCC
DNA 2: TGGTGGCTACGACGGGATT
B26: AUGGCCC (DNA:RNA)
RNA: B22 RNA with G25A, A28G, G30C, A31C
DNA 1: CAATCTGAATTCCGGTCTCCC
DNA 2: TGGTGGCTACGACGGGATT
B27: AAGAGCU (DNA:RNA)
RNA: B22 RNA with G25A, U26A, C29G, G30C, A31U
DNA 1: CAATCTGAATTCCGGTCTCCC
DNA 2: TGGTGGCTACGACGGGATT
B28: AGCCGAG (DNA:RNA)
RNA: B11 RNA with C25A, U27C, G28C, C31G
DNA 1: CAATCTGAATTCCGGTCTCCC
DNA 2: TGGTGGCTACGACGGGATT
B29: UGAUUUC (DNA:RNA)
RNA: B1 RNA with A26G, C28U, U31C
DNA 1: CAATCTGAATTCCGGTCTCCC
DNA 2: TGGTGGCTACGACGGGATT
B30: GUUAACA (DNA:RNA)
RNA: B22 RNA with G27U, C29A, G30C
DNA 1: CAATCTGAATTCCGGTCTCCC
DNA 2: TGGTGGCTACGACGGGATT
B31: AUUUGUG (DNA:RNA)
RNA: B11 RNA with C25A, G26U, G28U, A30U, C31G
DNA 1: CAATCTGAATTCCGGTCTCCC
DNA 2: TGGTGGCTACGACGGGATT

Biological target: T1, RBFOX1 RRM RbFoxmut (Fox-RRM*)
Assay: EMSA; HiTS-Eq, 1 nM pool, 10 min; buffer printed only for the single-RNA assays: 10 mM Tris pH 7.5, 150 mM NaCl, 3.4 mM EDTA, 0.001% NP-40, 30 C
Details: tags: His6 N-terminal (pET28a); label: 5' 32P
Procedure, shortened: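 Purified RbFox RRM (wild type or mutant) was equilibrated for 10 min in 50 µL with 1 nM of a 5′-radiolabelled pool of RNA with 7 randomized nucleotides, its flanks annealed to DNA oligonucleotides, across increasing protein concentrations. Free RNA was separated by 8% native PAGE, excised, reverse-transcribed, PCR-barcoded and sequenced on an Illumina HiSeq 2500. Relative association constants came from read-count changes of each variant against the control reaction, normalised to the cognate motif.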

**Q.** For B1, which binding signal is on record?
**A.** 0.0596 KA relative to UGCAUGU

**Q.** How did the binding signal turn out when B2 was run?
**A.** 0.0711 KA relative to UGCAUGU

**Q.** With B3 as the binder, how does the binding signal read?
**A.** 0.157 KA relative to UGCAUGU

**Q.** B4 was tested. Which binding signal did it give?
**A.** 0.0732 KA relative to UGCAUGU

**Q.** Which binding signal does the source give for B5 here?
**A.** 0.107 KA relative to UGCAUGU

**Q.** B6 was tested. Which binding signal did it give?
**A.** 0.065 KA relative to UGCAUGU

**Q.** How did the binding signal turn out when B7 was run?
**A.** 0.0872 KA relative to UGCAUGU

**Q.** How did the binding signal turn out when B8 was run?
**A.** 0.0947 KA relative to UGCAUGU

**Q.** For B9, which binding signal is on record?
**A.** 0.0832 KA relative to UGCAUGU

**Q.** B10 was tested. Which binding signal did it give?
**A.** 0.119 KA relative to UGCAUGU

**Q.** B11 was tested. Which binding signal did it give?
**A.** 0.0801 KA relative to UGCAUGU

**Q.** With B12 as the binder, how does the binding signal read?
**A.** 0.281 KA relative to UGCAUGU

**Q.** Which binding signal does the source give for B13 here?
**A.** 0.125 KA relative to UGCAUGU

**Q.** How did the binding signal turn out when B14 was run?
**A.** 0.112 KA relative to UGCAUGU

**Q.** B15 was tested. Which binding signal did it give?
**A.** 0.0435 KA relative to UGCAUGU

**Q.** For B16, which binding signal is on record?
**A.** 0.104 KA relative to UGCAUGU

**Q.** With B17 as the binder, how does the binding signal read?
**A.** 0.0681 KA relative to UGCAUGU

**Q.** B18 was tested. Which binding signal did it give?
**A.** 0.206 KA relative to UGCAUGU

**Q.** Which binding signal does the source give for B19 here?
**A.** 0.23 KA relative to UGCAUGU

**Q.** How did the binding signal turn out when B20 was run?
**A.** 0.162 KA relative to UGCAUGU

**Q.** For B21, which binding signal is on record?
**A.** 0.0868 KA relative to UGCAUGU

**Q.** With B22 as the binder, how does the binding signal read?
**A.** 0.0505 KA relative to UGCAUGU

**Q.** How did the binding signal turn out when B23 was run?
**A.** 0.157 KA relative to UGCAUGU

**Q.** Which binding signal does the source give for B24 here?
**A.** 0.0422 KA relative to UGCAUGU

**Q.** How did the binding signal turn out when B25 was run?
**A.** 0.1 KA relative to UGCAUGU

**Q.** B26 was tested. Which binding signal did it give?
**A.** 0.09 KA relative to UGCAUGU

**Q.** How did the binding signal turn out when B27 was run?
**A.** 0.0786 KA relative to UGCAUGU

**Q.** For B28, which binding signal is on record?
**A.** 0.0913 KA relative to UGCAUGU

**Q.** B29 was tested. Which binding signal did it give?
**A.** 0.0674 KA relative to UGCAUGU

**Q.** With B30 as the binder, how does the binding signal read?
**A.** 0.104 KA relative to UGCAUGU

**Q.** How did the binding signal turn out when B31 was run?
**A.** 0.17 KA relative to UGCAUGU
